From the supplement of paper PMC3724861
This is one part of the list.

system: T1, Caupolican (Caup) homeodomain DNA-binding domain; assay: PBM E-score (8-mer, recovered from the published 9-mer minima) (E-score (dimensionless, -0.5 to 0.5)); Drosophila protein; higher = stronger relative binding preference, active = 0.31 or more
T1 sequence: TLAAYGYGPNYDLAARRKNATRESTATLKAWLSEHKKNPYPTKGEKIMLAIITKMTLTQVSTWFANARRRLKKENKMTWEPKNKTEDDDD
How it was run: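 Caup's homeodomain DNA-binding domain (residues 214-303) was produced by in vitro transcription and translation and applied at 100 nM to custom-designed protein binding microarrays. Each value is an enrichment score giving relative binding preference for a short DNA word; higher means stronger. Published 9-mer scores were the minimum of their two constituent 8-mer scores, and the 8-mer values were recovered from those minima. A cutoff of 0.31 marks candidate binding sequences.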

| Sequence | PBM E-score |
| --- | --- |
| AATCGTAG | inactive: 0.128 |
| ACACGCGC | inactive: 0.101 |
| CTAAGGCA | inactive: -0.176 |
| AGATTTAA | inactive: -0.0644 |
| AAGGTAGA | inactive: 0.00307 |
| ATACGTGC | inactive: 0.1 |
| AACTACCC | inactive: 0.0415 |
| CTGCCCAA | inactive: -0.0948 |
| CACAGGTG | inactive: -0.0105 |
| GTTGACAA | inactive: 0.294 |
| CTAGTCAC | inactive: 0.141 |
| CCGGGCTA | inactive: -0.226 |
| GTAAGCAC | inactive: -0.00763 |
| TACAAGAA | active: 0.351 |
| ACTCCCGA | inactive: -0.0588 |
| AACGGTAA | inactive: 0.0102 |
| GAAAGAAA | inactive: -0.0143 |
| CCTGCAAA | inactive: -0.135 |
| CAGTGACC | inactive: -0.134 |
| GCTACTGA | inactive: -0.0208 |
| GTCCAGAC | inactive: -0.0468 |
| AGCTATCA | inactive: -0.00454 |
| GGTCCACC | inactive: -0.12 |
| AGCAACAC | inactive: 0.186 |
| CAGGGTAG | inactive: -0.12 |

| Sequence | PBM E-score |
| --- | --- |
| AGTCTACG | inactive: -0.117 |
| CAGACGCA | inactive: -0.105 |
| CATCGATC | inactive: 0.0872 |
| AGATGAAA | inactive: 0.073 |
| CTAGCGAA | inactive: -0.132 |
| GGCGAGCC | inactive: -0.169 |
| CGGTAACG | inactive: -0.0676 |
| CGGCCTAA | inactive: -0.101 |
| CCCCAACA | inactive: 0.0515 |
| GCACAAAC | inactive: 0.0907 |
| CCTGAAGG | inactive: -0.291 |
| CGCCCCGA | inactive: -0.286 |
| AGGTTAAG | inactive: -0.0563 |
| GATGGGAA | inactive: -0.0609 |
| CACTGATA | inactive: 0.129 |
| CCTCAGAA | inactive: -0.0716 |
| CAGGCCTA | inactive: -0.102 |
| AGTGCCGC | inactive: -0.185 |
| ACCTACGA | ≥ 0.0502 |
| CCAGTCGC | inactive: -0.153 |
| CCTCTCCC | inactive: -0.192 |
| ATCGATGA | inactive: 0.187 |
| CGTAAGGA | inactive: -0.00588 |
| GTGACGTA | inactive: 0.0283 |
| AGAGTTCG | inactive: -0.048 |

| Sequence | PBM E-score |
| --- | --- |
| AGTTCCAG | inactive: -0.0677 |
| AAAGCACC | inactive: -0.149 |
| CGTATGAG | inactive: 0.0161 |
| ATCTGTGA | inactive: 0.00137 |
| CGCTTCCC | inactive: -0.158 |
| AAAATCTG | inactive: 0.0858 |
| TAGTAGCA | ≥ 0.105 |
| ATCTCCAG | inactive: -0.0588 |
| GTGGCTCA | inactive: -0.086 |
| CCGCGGCA | inactive: -0.192 |
| AGCTTGAG | inactive: -0.17 |
| CAACCATG | inactive: 0.18 |
| ACAAGAGG | inactive: 0.142 |
| GGTTCCTA | inactive: -0.0269 |
| ACAGTCCA | inactive: 0.0228 |
| CAAGTCAA | inactive: 0.0959 |
| GATGGGCA | inactive: -0.0582 |
| CGTAGTCC | inactive: -0.0839 |
| AAGGTGCA | inactive: -0.031 |
| ATAGGACC | inactive: -0.0892 |
| AATATGGT | inactive: 0.0711 |
| AAACGCCA | inactive: -0.00421 |
| CTTGTGAA | inactive: 0.129 |
| AACGTCAA | inactive: 0.0558 |
| CTCAAGTC | inactive: -0.0127 |

| Sequence | PBM E-score |
| --- | --- |
| AACGGGGC | inactive: -0.174 |
| AAGGAAAG | inactive: -0.0839 |
| CCCTTATA | inactive: -0.0258 |
| CATGCTGC | inactive: 0.0174 |
| CTGATAGA | inactive: 0.119 |
| GATTGATA | inactive: 0.143 |
| AAAGACCT | inactive: -0.0628 |
| AGATTCGA | inactive: -0.0196 |
| AGTAGCCA | inactive: -0.103 |
| ATTTTCTC | inactive: -0.0295 |
| GGCATGCC | inactive: -0.0909 |
| TTATTAAA | inactive: 0.178 |
| CTCATGCA | inactive: 0.042 |
| GCTCAAAA | inactive: -0.0258 |
| ACTTGGGA | inactive: -0.159 |
| AATTCAAG | inactive: 0.118 |
| GTCGACTA | inactive: 0.0996 |
| CTTGCTCC | inactive: -0.0473 |
| GGTTCTAC | inactive: -0.0807 |
| CTCTATCC | inactive: -0.0726 |
| CATGCTAG | inactive: 0.255 |
| ATACCACC | inactive: 0.091 |
| CATATGTC | inactive: 0.277 |
| ATAAGATG | inactive: 0.0984 |
| GCGGAGCC | inactive: -0.36 |

| Sequence | PBM E-score |
| --- | --- |
| GTATTAGA | inactive: 0.178 |
| TGCAACAA | inactive: 0.256 |
| GGCTCACC | inactive: -0.239 |
| ATCGGGCA | inactive: -0.0328 |
| AGCCAGGA | inactive: -0.114 |
| ACATTCAT | ≥ 0.232 |
| CGGTGGTC | inactive: -0.0872 |
| CACTCTAC | inactive: 0.101 |
| ACCAGCAG | inactive: -0.089 |
| GTAGACAC | inactive: 0.194 |
| CAAGAGCG | inactive: -0.077 |
| ACCGATGC | inactive: -0.129 |
| CCTGGGGA | inactive: -0.191 |
| ATGACTAA | inactive: 0.048 |
| GAATGCGC | inactive: -0.0752 |
| CGGTGTGA | inactive: 0.0901 |
| GCCAAAGA | inactive: -0.105 |
| GTGAAGCA | inactive: -0.0135 |
| ATTGCCAA | inactive: 0.0166 |
| AGAGCGGC | inactive: -0.216 |
| ATATGATC | inactive: 0.134 |
| CATAGGGC | inactive: -0.137 |
| GACGGGTA | inactive: -0.0427 |
| ACAGGCAA | ≥ 0.161 |
| CATTCAGG | inactive: -0.0759 |

| Sequence | PBM E-score |
| --- | --- |
| AATGTGGA | inactive: 0.137 |
| CCACCAAA | inactive: -0.0968 |
| AGTGAAGG | inactive: -0.043 |
| ACCAAGAT | inactive: 0.0682 |
| ACCGTATG | inactive: 0.0477 |
| CTTGCTAA | inactive: -0.0122 |
| ACTCGGCG | inactive: -0.14 |
| CCCATTAC | inactive: 0.00704 |
| GGGCCGAC | inactive: -0.17 |
| GCTGCTAC | inactive: -0.0513 |
| GATACTGA | inactive: 0.0362 |
| CGTTTACA | inactive: 0.199 |
| CCATCTAG | inactive: -0.0593 |
| CCATTCAC | inactive: -0.0712 |
| AAAACCCT | inactive: -0.0223 |
| CCGGGGCA | inactive: -0.23 |
| CTTCCGTC | inactive: -0.14 |
| CATGAGAA | inactive: 0.0961 |
| CCTGGGTA | inactive: -0.102 |
| CCATGGGA | inactive: -0.0326 |
| AGCCCCAT | inactive: -0.196 |
| CAGGGACC | inactive: -0.189 |
| CGTCGTTC | inactive: 0.0474 |
| ACCAACCA | inactive: 0.0424 |
| ATCGAAGC | inactive: -0.0734 |

| Sequence | PBM E-score |
| --- | --- |
| ACAGGGAT | inactive: 0.117 |
| GCTGAGCC | inactive: -0.132 |
| AGAAAATG | inactive: 0.115 |
| AAGAAAGG | inactive: -0.00432 |
| AGCTTCAG | inactive: -0.111 |
| CATGCGAG | inactive: -0.0623 |
| ACATAACT | inactive: 0.291 |
| GGTTGACA | inactive: 0.231 |
| CACACCGA | inactive: 0.0554 |
| CAGGTAAA | inactive: 0.162 |
| GAAGCGGA | inactive: -0.156 |
| AGGACTAT | inactive: 0.00671 |
| GAGCAAAC | inactive: 0.0255 |
| CTATCTTC | inactive: 0.0312 |
| GCAAACGA | inactive: 0.0896 |
| ACGCGAGA | ≥ 0.00992 |
| CATCACAG | inactive: 0.0918 |
| CCCCTAAC | inactive: -0.234 |
| CCCGGCGA | inactive: -0.145 |
| CTGCATGA | inactive: -0.0538 |
| AACGACGT | inactive: 0.0851 |
| CACGAAGG | inactive: -0.0932 |
| ATGACCAT | inactive: 0.135 |
| AACGCCAT | inactive: -0.0153 |
| CCAACGCG | inactive: -0.0949 |

| Sequence | PBM E-score |
| --- | --- |
| CGCCCGGC | inactive: -0.27 |
| AGGGCGTG | inactive: -0.103 |
| CCCTCGTA | inactive: -0.00203 |
| CATTGACA | inactive: 0.217 |
| AGTATATG | inactive: 0.104 |
| GGAACCGA | inactive: -0.0398 |
| ATATAGTC | inactive: 0.111 |
| ACCACTGA | inactive: -0.0338 |
| CGTGTATC | inactive: 0.258 |
| CCCCCTAC | inactive: -0.23 |
| CCAATGAA | inactive: -0.121 |
| ACACCCGA | inactive: -0.00452 |
| ATGAAATC | ≥ 0.139 |
| GGAGTACC | inactive: -0.0959 |
| AAGATTCC | inactive: 0.00071 |
| GCTGAACC | inactive: -0.121 |
| TACGTTGA | inactive: 0.145 |
| CGCTCTCA | inactive: -0.168 |
| AATAGGAT | ≥ 0.122 |
| GGAATTAC | inactive: 0.103 |
| CCGTAATA | inactive: 0.0533 |
| CGAGGCAC | inactive: -0.171 |
| CTCGTTTC | inactive: 0.0187 |
| CGAGAGAA | inactive: -0.102 |
| AAGACAGC | inactive: -0.0428 |

| Sequence | PBM E-score |
| --- | --- |
| ATTCACCC | inactive: -0.106 |
| ATTTTAAC | inactive: 0.0613 |
| TCCCGGAA | inactive: -0.0856 |
| AGCTTCAA | inactive: -0.0251 |
| TAGTGTCA | inactive: 0.182 |
| AGAATCCT | inactive: -0.0519 |
| CCCTTCGA | inactive: -0.172 |
| GAAATCGA | inactive: -0.0636 |
| TGTTCGAA | inactive: 0.235 |
| AACATGAA | active: 0.387 |
| ACTCGTTG | inactive: 0.0789 |
| GTGGGGTA | inactive: -0.109 |
| GAGGTTGC | inactive: -0.184 |
| AGAACTCC | inactive: -0.077 |
| ACTCTGTA | inactive: 0.0791 |
| AAAGTAGC | inactive: -0.0164 |
| AAGCAATC | ≥ 0.132 |
| CATGGAAG | inactive: 0.0886 |
| ATTACATG | active: 0.447 |
| ATGACGGG | inactive: -0.0853 |
| TACAGTAA | inactive: 0.238 |
| CTTATGAA | inactive: -0.00095 |
| CGTTATCA | inactive: 0.0918 |
